Measurements published in US20240366718A1 (IMMUNOS THERAPEUTICS, published 2024).

Tests used:
[1] = biological target: T1, LILRB2 (c-terminally biotinylated, BPS Bioscience #100335) (human, UniProt Q8N423 22-460, limits assumed, C-terminal biotin); experiment: ELISA, biotinylated LILRB2 on streptavidin plates, detection with APC anti-human IgG
T1 construct: Bought biotinylated protein; also called human LILRB2; biotinylated LILRB2

[2] = biological target: T1, LILRB2 (c-terminally biotinylated, BPS …); experiment: BLI (Octet Red 96e), biotinylated LILRB2 on streptavidin sensors, bivalent analyte model

T1 sequence (Q8N423 22-460 limits assumed): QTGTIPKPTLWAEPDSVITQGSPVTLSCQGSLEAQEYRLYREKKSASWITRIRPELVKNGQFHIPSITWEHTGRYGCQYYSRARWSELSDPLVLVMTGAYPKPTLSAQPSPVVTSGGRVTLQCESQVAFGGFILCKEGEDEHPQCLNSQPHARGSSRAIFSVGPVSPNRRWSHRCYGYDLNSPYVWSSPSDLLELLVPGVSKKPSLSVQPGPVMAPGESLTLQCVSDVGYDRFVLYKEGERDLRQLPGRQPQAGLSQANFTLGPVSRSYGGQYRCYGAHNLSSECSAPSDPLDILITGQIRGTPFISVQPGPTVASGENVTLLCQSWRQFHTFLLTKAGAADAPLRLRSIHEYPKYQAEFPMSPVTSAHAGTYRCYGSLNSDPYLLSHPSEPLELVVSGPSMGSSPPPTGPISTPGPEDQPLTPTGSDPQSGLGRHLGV

Row | EC50 [1] | Kd [2] | Binder
1 | 21 nM |  | non-β2m-associated HLA-B57 IgG4 fusion protein (Fc fusion, β2m removed under acidic conditions; also called HLA-B57-Fc; natural HLA-B57-derived fusion protein control) MHC heavy: GSHSMRYFYTAMSRPGRGEPRFIAVGYVDDTQFVRFDSDAASPRMAPRAPWIEQEGPEYWDGETRNMKASAQTYRENLRIALRYYNQSEAGSHIIQVMYGCDVGPDGRLLRGHDQSAYDGKDYIALNEDLSSWTAADTAAQITQRKWEAARVAEQLRAYLEGLCVEWLRRYLENGKETLQRADPPKTHVTHHPISDHEATLRCWALGFYPAEITLTWQRDGEDQTQDTELVETRPAGDRTFQKWAAVVVPSGEEQRYTCHVQHEGLPKPLTLRWEPSSQSGGGGSGGGGS[letters of human IgG4 Fc with S228P (EU numbers) omitted]
2 | 8.3 nM | 20.3 nM | non-β2m-associated HLA-B57(A46E/V97R) IgG4 fusion protein (Fc fusion, β2m separated by size exclusion chromatography at pH 3.0; also called HLA-B57^(A46E/V97R)-Fc; variant HLA-B57 fusion protein) MHC heavy: GSHSMRYFYTAMSRPGRGEPRFIAVGYVDDTQFVRFDSDAASPRMEPRAPWIEQEGPEYWDGETRNMKASAQTYRENLRIALRYYNQSEAGSHIIQRMYGCDVGPDGRLLRGHDQSAYDGKDYIALNEDLSSWTAADTAAQITQRKWEAARVAEQLRAYLEGLCVEWLRRYLENGKETLQRADPPKTHVTHHPISDHEATLRCWALGFYPAEITLTWQRDGEDQTQDTELVETRPAGDRTFQKWAAVVVPSGEEQRYTCHVQHEGLPKPLTLRWEPSSQSGGGGSGGGGS[letters of human IgG4 Fc with S228P (EU numbers) omitted]
